# PubChem BioAssay (NCI)
# Where “and” joins values, the source holds several entries; their conditions need not be identical. Equal values may be shown once.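 Each compound was tested at five concentrations against cells in 96-well plates for 48 hours. At the GI50, growth is halved. At the TGI there is no net growth.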 Square brackets hold non-standard residues; d marks the D form. Peptide text beside a SMILES is read from it. * marks the point of attachment. Fmoc = O=C(OCC1c2ccccc2-c2ccccc21)*; NMeF = CN[CH](Cc1ccccc1)C(=O)O; NMeV = CN[CH](C(=O)O)C(C)C; Boc = CC(C)(C)OC(=O)*; OtBu = CC(C)(C)O*
# Test system: NCI-H322M lung
# Test: growth of human tumour cells (NCI), 48 h
SMILES,TGI [µM],GI50
COC(=O)c1cc(CC2Cc3cc4c(cc3C2)CCC4)cc2c1CCC2,> 100,–
C[C@]12CC[C@@H]3c4ccc(O)cc4CC[C@H]3[C@@H]1CC[C@@H]2NS(=O)(=O)c1cccc(OC(F)(F)F)c1,15.5,4.42 µM
Cc1nc2nn[nH]n2c(=O)c1CCO,> 100,–
COC(=O)c1cc2cc(OC)c(OC)cc2cc(C(=O)OC)c1=O,> 100,–
CC(C)=C1C(=O)c2c(Cl)sc(Cl)c2C1=O,> 100,–
O=C(c1ccccc1)c1ccc2nc(-c3c(Cl)c(Cl)c(Cl)c(Cl)c3C(=O)N/N=C\C=C\c3ccccc3)[nH]c2c1,> 100,–
Cc1ccc2c(c1)c(C1=C(c3cn(C)c4ccccc34)C(=O)NC1=O)cn2C,> 22.8,7.93 µM
CNS(=O)(=O)NN(C)S(=O)(=O)c1ccc(OC)cc1,> 100,–
CCCCC1C=Cn2c(=O)oc3c(OC(C)C)c(OC(C)C)c(O)c1c32 (stereo not drawn),61.9,–
Cc1ccc2ccc(O)cc2c1,> 100,–
Cc1c2ccccc2c(C)n2c1nc1cc3ccccc3cc12,2.44,–
COC(=O)c1c(O)c2c(c3c1OC(C)(C)CC3)OC(C)(C)CC2,68.9,–
O=C(O)CCC(N=C(C(=NC(CCC(=O)O)C(=O)O)c1ccccc1)c1ccccc1)C(=O)O (stereo not drawn),> 100,–
CC(NS(=O)(=O)c1ccc(Cl)cc1)C(=O)O (stereo not drawn),> 100,–
O=C(N/N=C\c1c(O)ccc2ccccc12)c1ccncc1,> 17.5,–
Cc1nc(Nc2ccc(Cl)cc2Cl)sc1C(=O)Nc1ccccc1,> 100,–
Cc1cn(C2CC(Br)C(COC(c3ccccc3)(c3ccccc3)c3ccccc3)O2)c(=O)[nH]c1=O (stereo not drawn),27.2,–
CCOc1ccc(NC(=O)CC2C(=O)Nc3ccccc3S2=O)cc1 (stereo not drawn),> 100,–
Cc1ccc(/C=C2\CN(C)CC3=C2NC(=S)NC3c2ccc(C)cc2)cc1 (stereo not drawn),> 100,–
NS(=O)(=O)c1ccc(N=Nc2ncccc2O)cc1,> 100,–
Cn1cc(C2=C(c3cn(C)c4ccc(OCc5ccccc5)cc34)C(=O)NC2=O)c2ccccc21,> 25,> 25 µM
Cc1cc(C)nc(NS(=O)(=O)c2ccc(NNc3c4ccccc4nc4c(C(=O)Nc5ccc(S(=O)(=O)N=C(N)N)cc5)cccc34)cc2)n1,> 100,–
O=C1C=C(Nc2ccc([N+](=O)[O-])cc2)c2ccccc2C1=O,23.1,11.1 µM
Cc1ccc2cc3c(N)c4c(C)ccc(C)c4nc3nc2c1,3.33,1.6 µM
COc1ccc2c3ccc4c(c3n(C)c2c1)C(=O)C=CC4=O,> 100,–

SMILES,TGI [µM],GI50
C/C=C1/C[C@@H](C)[C@@](C)(O)C(=O)OCC2=CC[N+]3([O-])CC[C@@H](OC1=O)[C@@H]23 (stereo partly drawn),> 100,–
COc1ccccc1NCc1nnc(CCCCCCCCc2nnc(CNc3ccccc3OC)o2)o1,> 100,–
O=C1Cc2c([nH]c3ccc(Cl)cc23)-c2ccccc2N1,> 100,–
CC(=O)c1c(C)cn(S(=O)(=O)NC(=O)Nc2nncs2)c1C,> 100,–
CC(=O)Oc1cc2oc(=O)cc(C)c2cc1OC(C)=O,> 100,–
CN(C)CCCNc1c2c(nc3ccc(Cl)cc13)CCCC2,32.1,–
N#Cc1nc(-c2ccccc2C(=O)O)oc1N,> 100,–
CC(=O)Nc1ccc(C2C(C(=O)Nc3ccccc3C)=C(C)NC(C)=C2C(=O)Nc2ccccc2C)cc1,> 100,–
COCP1(=S)OC(C)CCN1C(C)C (stereo not drawn),> 100,–
CC(=O)Nc1cccc(C#Cc2cncnc2Nc2ccc(OCc3cccc(F)c3)c(Cl)c2)n1,> 25,1.51 µM
CCOC(=O)C(NC(=O)c1ccccc1)(Nc1cc(C)on1)C(F)(F)F (stereo not drawn),> 100,–
O=C(O)C(C(C(=O)O)P(=O)(O)O)P(=O)(O)O (stereo not drawn),> 100,–
CC(C)Sc1nncc(/C(N)=N/O)n1,> 100,–
CC(=O)c1ccc(NC(=O)/C(CC(=O)/C=C/c2ccccc2)=N/NC(N)=S)cc1,> 100,–
C[C@]12CC[C@H](O)CC1=CC[C@@H]1C2CC[C@]2(C)NC(=O)C(C#N)CC12 (stereo partly drawn),> 100,–
CCCCc1[nH]ccc2c(C)c3nc4ccccc4c3cc12,14.7,–
C=C1CC(OC)(C(OC)C(=O)N(C)[C@H]2OCO[C@H]3C2O[C@H](C[C@@H](COC)OC)C(C)(C)C3OC)O[C@H](C)[C@@H]1C (stereo partly drawn),36.8,–
C[C@]12CCC3[C@@H](CC[C@@H]4c5nonc5CC[C@]34C)C1CCC2=O (stereo partly drawn),> 100,–
N#CC(C#N)=C(C(C#N)C#N)C(C#N)C#N,> 100,–
O=S(=O)(c1ccccc1)[C@H]1[C@@H]2O[C@@H]2C[C@@H]1O,> 100,–
COC(=O)/C(=C(\C)NC(C)=O)c1c(C(=O)OC)[nH]c2ccccc12,> 100,–
COc1cccc2c(Nc3ccc(C(=O)O)cc3)cc(-c3ccccc3)nc12,> 100,> 100 µM
Cc1c(C)c(S(=O)(=O)N(CCCCCCN)OCCCN)c(C)c2c1OC(C)(C)CC2,19.1,–
C[Si](C)(C)/N=C1\N2C(=NC1(C(F)(F)F)C(F)(F)F)Sc1ccccc12,> 50,–
CCCCCCC[CH2][Sn]([Cl])([Cl])[CH2]CCCCCCC,23.9,11.6 µM

SMILES,TGI [µM],GI50
CC(C)C(NC(=O)OC(C)(C)C)C(=O)N(C)C(Cc1ccccc1)C(=O)N(C)C(C(=O)N(C)C(C(=O)O)C(C)C)C(C)C (stereo not drawn) (Boc-V[NMeF][NMeV][NMeV]-OH; configuration not given here),> 100,–
O=C(CSCC(=O)N/N=C\c1cc(Cl)cc(Cl)c1O)N/N=C\c1cc(Cl)cc(Cl)c1O,8.09,–
C=CCSSC1N=CNc2nc[nH]c21 (stereo not drawn),> 100,6.18 µM
CC(=O)OC1COC(n2c3ccccc3c3ccc4c5ccccc5[nH]c4c32)C(OC(C)=O)C1OC(C)=O (stereo not drawn),> 100,–
COc1ccc(C2=Nn3c(nnc3-c3ccccc3)S/C2=C\c2ccc(-c3ccc([N+](=O)[O-])cc3)o2)cc1,> 100,–
COC(=O)c1ccc2[nH]c(O)c(C(=Nc3ccc(N(C)C(=O)CN4CCN(C)CC4)cc3)c3ccc(OC)cc3)c2c1,7.69,2.02 µM
COc1cc2c3c(c1O)N=NC=3CCN=2,58,–
O=C(CSc1nnc(Cc2ccccc2)o1)Nc1ccc(Cl)cc1Cl,> 100,–
C=C(C(=O)OC1C(CO)OC(OCC2CC[C@@H]3C[C@]4(OC(=O)C3=C)C(C)=CC(=O)C24)C(O)C1O)[C@@H]1CCC(CO)C2C(=O)C=C(C)[C@@]2(O)C1 (stereo partly drawn),22.3,–
CC(C1CCCC1=O)C1CCCC1=O (stereo not drawn),> 100,–
COc1cc(/C=C2/SC(c3ccccc3)N(c3cc(Cl)ccc3Cl)C2=O)cc(OC)c1OC (stereo not drawn),> 100,–
Cc1ccc(C2(C)CC/C(=N/N=C3/CCC(C)(c4ccc(C)c(C)c4)c4cc(C)c(C)cc43)c3cc(C)c(C)cc32)cc1C (stereo not drawn),> 100,–
CC(=O)c1c(SCCN2CCCCCC2)n(-c2ccccc2)c(=S)n(-c2ccccc2)c1=O,> 61.6,–
CC(C)CC(N=Cc1nc(-c2ccccc2)oc1O)C(=O)O (stereo not drawn),> 100,–
O=C1C=CC(=O)C(c2cc(-c3ccc(Cl)cc3)nn2-c2ccccc2)=C1,63.9,21.9 µM
CCOC(=O)c1sc2nc(SC)nc(Nc3ccc4c(c3)OCO4)c2c1N,> 100,–
CSC(N)=Nc1cccc2ccccc12,> 10,–
COc1ccc(C(O)c2cc3c(N)c(C(=O)Nc4ccc(Br)cc4)sc3nc2C)cc1 (stereo not drawn),39.8,3.93 µM
Nc1nonc1-c1nc2cnccc2n1C1CCCCC1,> 25,> 25 µM
CC(C)(C)OC(=O)CCC(NC(=O)OCC1c2ccccc2-c2ccccc21)C(=O)NC(Cc1c[nH]c2ccccc12)C(=O)NC(CCCCNC(=O)OC(C)(C)C)C(=O)N1CCCC1C(=O)NCC(N)=O (stereo not drawn) (Fmoc-E(OtBu)WK(Boc)PG-NH2; configuration not given here),> 100,42.6 µM and > 100 µM
Clc1ccc(-c2noc(CN3CCCCC3)n2)cc1,> 100,–
CC/C(=C(\c1ccc(Cl)cc1)c1ccc(OCCN2CCCCC2)cc1)c1ccc(O)cc1,3.67,1.72 µM
CCOC(=O)C(CS)NC(=O)CCCCCCCC(=O)O (stereo not drawn),> 100,–
COc1ccc(-n2sc3ncc(C)cc3c2=O)cc1,> 100,–
COc1ccc(/C(COc2ccc3c(c2)oc(=O)c2cc(OC)ccc23)=N/O)cc1,> 100,19.8 µM

SMILES,TGI [µM],GI50
NC(C(=O)O)c1cc(=O)[nH]o1 (stereo not drawn),> 100,–
N#CC(C#N)=c1ccc(=C2N3CCCC3CN2C23CC4CC(CC(C4)C2)C3)cc1 (stereo not drawn),> 100,–
COc1ccc(C2c3c(n(C)c(=O)n(C)c3=O)OC(N(C)C)(N(C)C)C2(F)F)cc1 (stereo not drawn),> 100,–
COc1ccccc1N1CCN(CC(O)COc2c(Br)c(Br)c(Br)c3c2OC(C)(C)C3)CC1 (stereo not drawn),52.6,15 µM
CCCCCC(=O)n1[nH]c(=O)n(-c2ccc(OC)cc2)c1=O,> 100,–
CCOP(=O)(OCC)/C(C#N)=C/c1coc2cc(C)cc(C)c2c1=O,> 100,–
CC1=C(/C=C/C(C)=C/C=C/C(C)=C/C=C/C=C(C)/C=C/C=C(C)/C=C/C=C(C)/C=C/C=C(\C)C(=O)O)C(C)(C)CCC1,> 100,–
O=C(C=P(c1ccccc1)(c1ccccc1)c1ccccc1)CC(=S)CC(=O)C=P(c1ccccc1)(c1ccccc1)c1ccccc1,> 100,–
CCCCCc1cccc(=O)o1,> 100,–
CCOC(=O)Nc1nc2cc(OC)c(OC)c(OC)c2s1,> 100,65.7 µM
CN(C)c1nc(N(C)C)sc(=O)n1,> 100,–
Nc1ccc(N)c2c1C(=O)c1ccccc1C2=O,> 100,–
O=C(CC(=O)Nc1ccc(C(=O)O)cc1)Nc1ccc(C(=O)O)cc1,> 100,–
CCOC(=O)NN(C(=O)OCC)C(=C(c1ccccc1)N1CCOCC1)N(NC(=O)OCC)C(=O)OCC,> 100,–
c1ccc(N2CCN(CN3CCN(c4ccccc4)C3)C2)cc1,> 100,> 100 µM
CCc1ccccc1N1C(=O)C(=O)C(c2nc3ccccc3s2)C(=O)C1=O,> 100,–
COc1ccc(/C=C2/SC(c3ccccc3)N(NC(=O)CCCCCCCCC(=O)NN3C(=O)/C(=C\c4ccc(OC)c(OC)c4)SC3c3ccccc3)C2=O)cc1OC (stereo not drawn),> 100,–
CCCCCC(=O)OCCOCCOCCOCCOCCOCc1ccccc1,> 100,–
C=C1CCC(O)C/C1=C/C=C1\CCCC2(C)C1CCC2C(C)CCCC(C)C (stereo not drawn),> 56.6,–
O=c1[nH]cnc2[nH]cc(CN3CCCCC3)c12,> 100,–
C=C1C(=O)c2sccc2C(c2ccc(OC)c(OC)c2)C1COC(C)=O (stereo not drawn),40.4,17.3 µM
O/N=C(\C(=N/O)Nc1ccc(-c2ccc(NC(=N/O)/C(=N\O)c3ccccc3)cc2)cc1)c1ccccc1,77.8,–
CC1OC2=N[C@@H]1C(=O)N[C@@H](Cc1ccccc1)C1=N[C@H](C(=O)N[C@@H](Cc3ccccc3)C3=N[C@H](C(=O)N[C@H]2Cc2ccccc2)C(C)O3)C(C)O1 (stereo partly drawn),> 100,–
